Data reported in ChEMBL document CHEMBL4888484, “Replenishing the malaria drug discovery pipeline: Screening and hit evaluation of the MMV Hit Generation Library 1 (HGL1) against asexual blood stage Plasmodium falciparum ,using a nano luciferase reporter read-out” (2022).
Out of some 150,000 compounds screened, about 540 (0.36%) showed an effect of 50% or more. This is one part of the list.

tested on: Plasmodium falciparum; assay: Primary screen in NF54 nanoGlo assay, in single point, at 2uM, 72h; a lower Z score goes with more inhibition; type: functional, Erythrocyte; settings: timepoint 72 hour

| SMILES | % Inhibition | Z score |
| --- | --- | --- |
| COC(=O)[C@@H](NCC(=O)Nc1ccccc1)C(C)(C)C | -8% | 1.01 |
| Cn1c(CN2C(=O)N[C@](C)(c3c(F)cccc3F)C2=O)nc2ccccc21 | -16% | 2.43 |
| Cc1cnc(N[C@H]2CCN(C)C2=O)nc1-c1ccnn1C | -6% | 1.16 |
| Cc1nnc(CN2CCC[C@H](c3nc(C(C)C)cs3)C2)s1 | -8% | 1.01 |
| O=C(CCn1cncn1)N1CCC2(CCC(=O)N(CCc3cccnc3)C2)CC1 | -11% | 2.04 |
| CC1CC1c1ccc(C(=O)Nc2nnc(NS(C)(=O)=O)s2)o1 (stereo not drawn) | -1% | 0.18 |
| COc1cc(C)nc(N[C@H]2CCCC[C@@H]2OC)n1 | -5% | 0.94 |
| CC[C@H]1COCCN1Cc1cc(F)ccc1Cl | -9% | 1.14 |
| CCO[C@@H](CC)C(=O)Nc1ccn(C)n1 | -14% | 1.45 |
| CCCn1nc(C(=O)O)c2c1CC[C@H](N(C)CCc1ccccn1)C2 | 8% | -1.1 |
| CCc1nnsc1C(=O)NCC(F)(F)F | -1% | 0.27 |
| O=C1Cc2ccc(CC(=O)N[C@H]3CCO[C@@H]3c3cc[nH]n3)cc2N1 | -22% | 2.41 |
| CCS(=O)(=O)N1CCC(N2C(=O)N3CCC[C@@]3(C)C2=O)CC1 | 2% | -0.17 |
| C=CCN(CCc1ccccc1)C(=O)[C@H](C)n1ccnc1 | 1% | -0.12 |
| Cc1c(CC(=O)N2CCCO2)c2c(n1Cc1ccc(F)cc1)CCCC2=O | -18% | 1.69 |
| O=C1[C@H]2CCCN2C(=O)N1C1CCN(c2ccc(Cl)c(F)c2)C1 (stereo partly drawn) | -14% | 2.21 |
| CCc1cccc(C)c1NC(=O)COc1ccccc1-c1nnc(-c2ccccc2)o1 | -9% | 0.99 |
| CC(CCO)C1(CNC(=O)NCC2CCCO2)CCC1 (stereo not drawn) | -7% | 1.25 |
| CCC(=O)N1CCCc2cc(S(=O)(=O)N3CCC(C(=O)Nc4ccc(C#N)cc4)CC3)ccc21 | -1% | 0.15 |
| CC(C)n1cccc1C(=O)N[C@@H](C)C(N)=O | 5% | -0.67 |
| O=S1(=O)CCC(CN2CCCC(c3ccc(F)cc3)CC2)C1 (stereo not drawn) | 1% | -0.09 |
| Cc1cccc(OCc2nc(CN(CCN3CCOCC3)C(=O)CC(C)C)cs2)c1 | -2% | 0.34 |
| CNC(=O)CCCN1C[C@@](C)(Cc2ccc3c(c2)OCO3)CCC1=O | 4% | -0.76 |
| Cc1ccc2oc(C(=O)N3CCc4ccccc43)cc2n1 | -12% | 1.76 |
| CN1CCN(Cc2noc(C3(N)CCCC3)n2)CC1 | -9% | 1.61 |
| Cc1c(C(F)(F)F)nc(-c2ccc(CN3CC(n4cccn4)C3)cc2)[nH]c1=O | -4% | 0.63 |
| COC(=O)N[C@@H](C)C(=O)NCCCn1ccnn1 | -6% | 1 |

| SMILES | % Inhibition | Z score |
| --- | --- | --- |
| C[C@H]1CN(C)CCN1C(=O)c1nc(N2CCOCC2)ncc1Cl | -14% | 2.19 |
| CCCc1cc(C(=O)Nc2ccnc(C)c2)[nH]n1 | 0% | 0.05 |
| O=C(O)c1cccnc1CN1CCN(c2cccc(Cl)c2Cl)CC1 | -10% | 1.19 |
| COCCN(C(=O)Cc1c[nH]c2cc(Cl)ccc12)[C@@H](C)C(N)=O | -5% | 0.81 |
| Cc1noc(C)c1S(=O)(=O)NCc1ccnc(-c2cnn(C)c2)c1 | -8% | 1.26 |
| C[C@H]1CCCCN1C(=O)CCc1nc2ccccc2o1 | 6% | -0.79 |
| Cc1ccccc1NC(=O)Cn1nc2c(Oc3ccccc3)nccn2c1=O | -9% | 1.17 |
| CC(C)NC(=O)CCNC(=O)Nc1cccc(-c2ccsc2)c1 | 4% | -0.84 |
| CCC1CCC(C(=O)NCc2nc(C3CC3)n[nH]2)CC1 (stereo not drawn) | -10% | 0.99 |
| Cc1ccc(Cn2cc([C@H](CC(=O)NCc3ccco3)c3ccc(OCc4ccccc4)cc3)c3ccccc32)cc1 | -6% | 0.71 |
| C[C@@H](CN1CCN(C)CC1)OC(=O)COc1ccc(F)cc1 | -6% | 0.97 |
| Cc1ccc(CN(CC(=O)Nc2sc(C)c(C)c2C)C(C)C)s1 | -4% | 0.49 |
| CN(C)C(=O)N1CC[C@H](N(CCNC(=O)CC2CCCCC2)C2CCOCC2)C1 | -4% | 0.6 |
| C[C@H](Nc1ccc(C#N)nc1)c1ccn(C)n1 | -5% | 0.59 |
| CCN(CC)C1CCN(C(=O)N[C@H](c2cccs2)C2CC2)CC1 | 5% | -0.76 |
| CN(CCC1(O)CCCC1)Cc1ccc(F)cc1Cl | -10% | 1.89 |
| Cn1nc2c(c1C(=O)N[C@@H]1COCC[C@@H]1Oc1ccccc1)CCCC2 | -7% | 1.25 |
| Cc1cc(NC(=O)Cn2c(=O)c(C#N)c3n(c2=O)CCC3)n(C)n1 | 3% | -0.37 |
| COc1cc(C(=O)N2CCOC23CCN(C)CC3)cc(OC)c1OC | 3% | -0.36 |
| O=C1NCCCCCN(C(=O)CC2CCCCC2)[C@@H]2C[C@@H](C(=O)N3CCc4ccccc4C3)C[C@H]12 | -5% | 0.79 |
| COc1ccc(CC(=O)NCc2ccc(S(=O)(=O)N3CCC(C)CC3)s2)cc1 | -25% | 2.49 |
| CNc1nc2c(c(C(=O)N3CCCC3)n1)CN(C(=O)Cn1nccc1C)CC2 | -7% | 1.26 |
| CCN(Cc1noc(C2CCC2)n1)C(=O)NCC1(CC(C)C)CCC1 | -10% | 0.88 |
| O=C(c1ccc2[nH]ncc2c1)N1CC[C@]2(CCOC2)C1 | -10% | 1.32 |
| O=C(c1csc(C2CC2)n1)N1CC[C@H](Oc2cccc(F)c2)C1 | -4% | 0.43 |
| CN(C(=O)NCCC1=CCCCC1)C1CCN(c2ccccn2)CC1 | -13% | 1.67 |
| O=C(c1ccncc1)N1C[C@@H]2OCC(=O)N(Cc3ccccn3)[C@@H]2C1 | -8% | 1.69 |
